# Laboratory results taken from PubChem BioAssay AID2147 (National Center for Advancing Translational Sciences (NCATS), 2009).
# Hit rate of the full screen: of about 230,000 compounds, about 3,600 (1.6%) were called active. Inconclusive means that the source gave no clear call. Such entries were picked first, then a sample of the others. Calls come from the whole dose curve; as a rule, active = well fitted inhibition curve with a large enough effect (not every such curve was filed as active); inconclusive = small, poorly fitted or top-dose-only effect, or another doubt; inactive = no such curve, though single readings can be large or run the other way. Where the call is inconclusive, the potency comes from a doubtful curve fit.
# Target: Lysine-specific demethylase 4E (Homo sapiens) (UniProt B2RXH2)
# Experiment: qHTS Assay for Inhibitors of Human Jumonji Domain Containing 2E (JMJD2E)
# Settings: JMJD2E catalytic domain, FDH-coupled NADH fluorescence (FDH is formaldehyde dehydrogenase); series mostly up to 57.1 µM; activity change, negative = inhibition: at the top concentration
# Note: nearly all actives have a fitted effect of over 50% in size.
# Potency is the fitted concentration of half-maximal effect; tags give direction and shape of the fitted curve.
# 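Throughout, for activity change, negative = inhibition: 0% = wells with enzyme and -100% = buffer wells without enzyme.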
# UniProt B2RXH2, sequence (B2RXH2 whole entry, looked up, the tested form may be a part): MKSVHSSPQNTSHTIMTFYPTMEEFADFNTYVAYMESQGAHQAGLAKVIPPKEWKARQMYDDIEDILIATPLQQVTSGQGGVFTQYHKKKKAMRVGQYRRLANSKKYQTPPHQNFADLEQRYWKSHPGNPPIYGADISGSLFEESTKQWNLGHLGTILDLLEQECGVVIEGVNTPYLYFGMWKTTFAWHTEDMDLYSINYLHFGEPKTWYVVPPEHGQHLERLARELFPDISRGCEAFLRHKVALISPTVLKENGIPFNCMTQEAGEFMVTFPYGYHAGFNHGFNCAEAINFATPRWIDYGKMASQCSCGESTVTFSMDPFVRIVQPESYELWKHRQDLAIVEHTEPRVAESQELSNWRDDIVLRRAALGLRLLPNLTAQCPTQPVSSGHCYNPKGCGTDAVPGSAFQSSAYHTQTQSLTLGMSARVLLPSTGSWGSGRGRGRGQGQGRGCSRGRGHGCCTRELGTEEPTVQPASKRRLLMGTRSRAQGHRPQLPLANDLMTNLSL
Compound,Potency,"activity change, negative = inhibition"
CC[C@@H]1CN2CC[C@@H]1C[C@H]2[C@H](O)c1ccnc2ccc(OC)cc12,"inconclusive: 22.4 µM [inhibitor, partial curve]",–
COc1cccc(CCNCc2ccc(SC)cc2)c1,"inconclusive: 31.6 µM [inhibitor, single point]",–
CN1CCc2nc(SCC(=O)OC(C)(C)C)c(C#N)cc2C1,"inconclusive: 25.1 µM [inhibitor, partial curve]",–
CC(C)N1C(=O)/C(=C/C=C/c2ccco2)C(=O)N(Cc2ccco2)C1=O,–,inactive: -28%
Cc1c(N=Nc2c(O)[nH]c(=S)[nH]c2=O)c(=O)n(-c2ccccc2)n1C,–,inactive: -5.52%
CC(=O)Nc1ccc(OC(=O)c2ccccc2N)cc1,"inconclusive: 31.6 µM [inhibitor, partial curve]",–
CC(C)c1ccc(-n2c(O)c(/C=N/NC(=O)c3ccccc3O)c(=O)[nH]c2=S)cc1,"inconclusive: 11.2 µM [inhibitor, partial curve]",–
Cc1[nH]c2ccccc2c1C1=CCNCC1,"inconclusive: 25.1 µM [inhibitor, single point]",–
CC1=C2[C@@H]3OC(=O)[C@@H](C)[C@@H]3CC[C@]2(C)C=CC1=O,–,inactive: 4.8% [at 25.5 µM]
CC(=O)NN1C(=O)c2ccccc2NC1c1cccnc1 (configuration not stated),"inconclusive: 25.1 µM [inhibitor, partial curve]",–
Cc1cc(NCCN)nc2ccccc12,"inconclusive: 39.8 µM [inhibitor, single point]",–
CNS(=O)(=O)c1ccc(N=Cc2c(O)n(-c3ccc(C)cc3)c(=O)[nH]c2=O)cc1,"inconclusive: 39.8 µM [inhibitor, single point]",–
CN1C[C@H](CO)C=C2c3cccc4[nH]cc(c34)C[C@H]21,"inconclusive: 28.2 µM [inhibitor, partial curve]",–
COC1=CC(=O)OC(/C=C/c2ccccc2)C1 (configuration not stated),–,inactive: 4.44%
N#CC1=C(N)Oc2c(c(=O)oc3ccccc23)C1c1cccnc1 (configuration not stated),"inconclusive: 35.5 µM [inhibitor, single point]",–
BrC1C(Br)C(Br)C(Br)C(Br)C1Br (configuration not stated),"inconclusive: 25.1 µM [inhibitor, single point]",–
C[C@]12CC(=CO)C(=O)C[C@@H]1CC[C@@H]1[C@@H]2CC[C@@]2(C)[C@H]1CC[C@]2(C)O,–,inactive: -18.9%
COc1ccc(N=Cc2c(O)n(-c3ccc(C)cc3)c(=O)[nH]c2=O)cc1,"inconclusive: 35.5 µM [inhibitor, single point]",–
O=c1c2ccccc2nc(-c2ccccc2)n1-c1ccccc1,–,inactive: 1.69%
CCN(CC)c1ccc(/C=C2/C(=O)NC(=O)N(CC3CCCO3)C2=O)cc1 (configuration not stated),–,inactive: -6.91%
CCCN1[C@@H]2C[C@@H](O)CC[C@@H]2C[C@H]1C(=O)OC,–,inactive: -25.9%
CCn1c(O)c(/C=N/NC(=O)c2ccccc2)c(=O)n(CC)c1=S,"inconclusive: 10 µM [inhibitor, partial curve, poor fit]",–
C=CCn1c(O)c(/C(C)=N/NC(=S)Nc2ccccc2)c(=O)[nH]c1=O,"inconclusive: 28.2 µM [inhibitor, single point]",–
COc1ccccc1CN1CCN(Cc2ccc(Cl)cc2)CC1,active: 20 µM,–

Compound,Potency,"activity change, negative = inhibition"
CCOC(=O)C(NC(=O)C(Cc1ccc(N(CCCl)CCCl)cc1)NC(C)=O)C(C)C (configuration not stated),"inconclusive: 39.8 µM [inhibitor, single point]",–
NC(Cc1cc(O)c(O)cc1O)C(=O)O (configuration not stated),active: 12.6 µM,–
CCCCC(=O)N/N=C/c1c(O)n(C2CC2)c(=S)[nH]c1=O,"inconclusive: 39.8 µM [inhibitor, single point]",–
Cc1cc(C)nc(NS(=O)(=O)c2ccc(N=Cc3c(O)n(C)c(=O)n(C)c3=O)cc2)n1,"inconclusive: 39.8 µM [inhibitor, single point]",–
c1ccc(-c2nnc(SCc3nc4ccccc4[nH]3)o2)cc1,"inconclusive: 25.1 µM [inhibitor, single point]",–
O=c1oc2ccccc2c(O)c1C(c1ccccc1O)c1c(O)c2ccccc2oc1=O,–,inactive: 1.84%
COC(=O)c1cc(COc2cc(C)cc3oc(=O)c4c(c23)CCC4)c(C)o1,"inconclusive: 22.4 µM [inhibitor, partial curve]",–
CC(=O)C1C2c3ccccc3OC1(C)N=c1s/c(=C/c3cn(C)nc3C)c(=O)n12 (configuration not stated),–,inactive: -5.67%
CCOC(=O)[C@]1(C#N)[C@@H]2C=CC(C(N)=O)=CN2[C@@H](C(N)=O)[C@@H]1c1ccc(F)cc1,"inconclusive: 22.4 µM [inhibitor, partial curve]",–
O=c1c2ccccc2nc(SCC2CCCCO2)n1-c1ccccc1 (configuration not stated),–,inactive: 8.9%
CC1(C)OC(c2ccccc2)=C/C(=C/C=C2C(=O)NC(=S)NC2=O)O1,–,inactive: -8.74%
Cn1ncnc2c(=O)n(C)c(=O)nc1-2,active: 3.98 µM,–
CCCCC/C=C\C/C=C\C/C=C\CCCCC(=O)NCCO,–,inactive: -3.03%
Cc1ccc2c(c1)CC1(CN2C)C(=O)NC(=O)N(CCC2=CCCCC2)C1=O (configuration not stated),–,inactive: -5.24%
Cc1cccc(C(=O)OCc2cc3ccccc3[nH]c2=O)c1,"inconclusive: 39.8 µM [inhibitor, single point]",–
COC(=O)COc1cc(C)cc2oc(=O)c3c(c12)CCCC3,"inconclusive: 31.6 µM [inhibitor, partial curve]",–
Cc1cc(/C=C2\C(=O)NC(=O)N(c3ccc(F)cc3)C2=O)c(C)n1-c1ccc(C(=O)O)cc1,–,inactive: -5.16%
COc1cccc(N2C(=O)NC(=O)/C(=C/c3ccc4c5c(cccc35)CC4)C2=O)c1,–,inactive: -3.31%
CC(C)N1CC=C(c2c[nH]c3ccccc23)CC1,"inconclusive: 31.6 µM [inhibitor, single point]",–
CCOP(=O)(OCC)c1nc(-c2ccc(F)cc2)oc1NCc1ccccc1,"inconclusive: 31.6 µM [inhibitor, partial curve]",–
CNC(=O)c1cccn(Cc2cccc(C(F)(F)F)c2)c1=O,"inconclusive: 31.6 µM [inhibitor, partial curve]",–
COP(=S)(OC)SCN1C(=O)c2ccccc2C1=O,–,inactive: -9.04%
CCn1cc(C(=O)O)c(=O)c2ccc(C)nc21,"inconclusive: 31.6 µM [inhibitor, single point]",–
